Among all 390,000 compounds or so, about 4,700 (1.2%) were called active. The inconclusive results got no clear call from the source; some entries with a clear call stand among them for comparison. The call rests on the fitted dose curve; in most records, active means well fitted inhibition curve with a large enough effect; inconclusive means small, poorly fitted or top-dose-only effect, or another doubt; inactive means no such curve, though single readings can be large or run the other way. Where the call is inconclusive, the potency comes from a doubtful curve fit.
What follows are compounds tested against DNA polymerase eta (Homo sapiens) (UniProt Q9Y253) (assay: qHTS for Inhibitors of Polymerase Eta). Conditions: recombinant Pol eta, fluorescent DNA replication assay; series mostly up to 114 µM.
Sequence of UniProt Q9Y253 (Q9Y253 whole entry, looked up): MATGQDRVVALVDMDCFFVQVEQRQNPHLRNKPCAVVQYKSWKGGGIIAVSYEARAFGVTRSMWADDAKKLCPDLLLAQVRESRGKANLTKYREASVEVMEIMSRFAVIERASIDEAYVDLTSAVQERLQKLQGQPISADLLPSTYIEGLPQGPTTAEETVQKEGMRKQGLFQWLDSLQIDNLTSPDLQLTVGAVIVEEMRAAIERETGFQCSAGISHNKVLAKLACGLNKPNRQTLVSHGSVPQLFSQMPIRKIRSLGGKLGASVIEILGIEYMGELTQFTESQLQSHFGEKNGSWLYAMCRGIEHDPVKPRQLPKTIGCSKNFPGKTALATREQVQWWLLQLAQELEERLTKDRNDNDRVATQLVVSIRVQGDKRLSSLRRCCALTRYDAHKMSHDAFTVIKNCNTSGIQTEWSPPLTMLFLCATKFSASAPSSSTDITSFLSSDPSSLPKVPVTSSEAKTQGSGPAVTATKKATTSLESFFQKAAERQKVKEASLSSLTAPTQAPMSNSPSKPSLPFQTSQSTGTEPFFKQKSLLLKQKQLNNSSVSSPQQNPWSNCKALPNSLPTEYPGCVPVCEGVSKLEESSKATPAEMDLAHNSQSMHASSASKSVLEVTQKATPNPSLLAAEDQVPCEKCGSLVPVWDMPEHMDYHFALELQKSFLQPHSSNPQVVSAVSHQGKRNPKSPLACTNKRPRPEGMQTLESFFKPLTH
In short: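 Pol eta at 10 nM preincubated with compounds 15 min at room temperature; reaction started with fluorescent substrate (50 nM final) and read kinetically at 0 and 10 min.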
`O=C(CSc1nc2cc3c(cc2c(=O)n1CCC1=CCCCC1)OCO3)NCc1ccco1` was tested, and the Potency was inconclusive: 28.2 µM [inhibitor, partial curve, poor fit]. For `Fc1ccc(N2N=C(c3cccs3)CC2c2ccccc2)cc1` (configuration not stated), the Potency was inconclusive: 89.1 µM [inhibitor, partial curve, poor fit]. With `O=C(Nc1ccnn1C1CCN(C2CCCC2)CC1)c1ccccc1` the Potency was inconclusive: 89.1 µM [inhibitor, partial curve, poor fit]. With `COc1ccc(C(=O)C(CCCCC(CN(C)C)C(=O)c2ccc(OC)cc2)CN(C)C)cc1` (configuration not stated) the Potency was “inactive”. With `COc1ccc(C2=NN(c3nc(-c4ccccc4)c(CC(=O)O)s3)C(c3ccco3)C2)cc1` (configuration not stated) the Potency was active: 28.2 µM. `Cc1ccc(NC(=O)CSc2nnc(-c3ccco3)o2)cc1` was tested, and the Potency was “inactive”. `Cc1ccc2c(c1)sc1nc(=O)n(-c3cccc(Cl)c3)c(=O)n12` was tested, and the Potency was inconclusive: 31.6 µM [inhibitor, partial curve, poor fit]. With `CC(C)Cc1c(O)nc(SCC(=O)N2CCCCCC2)[nH]c1=O` the Potency was “inactive”. In the case of `O=C(C=Cc1cccnc1)c1ccccc1`, the Potency is reported as inconclusive: 10 µM [inhibitor, partial curve, poor fit]. For `CN(C(=O)NCc1noc2ccccc12)c1cccc(Cl)c1`, the Potency was “inactive”. With `Cc1cccc(Cn2nnc3c(=O)[nH]c(C4CCCN(C(=O)c5ccc(C(C)(C)C)cc5)C4)nc32)c1` (configuration not stated) the Potency was inconclusive: 56.2 µM [inhibitor, partial curve, poor fit]. For `O=C(Nc1cc([N+](=O)[O-])ccc1O)c1ccc2c(c1)C(=O)N(Cc1ccco1)C2=O`, the Potency was active: 31.6 µM. For `COc1ccc(-c2cn[nH]c2-c2ccc(OCc3ccccc3F)cc2O)cc1OC`, the Potency was inconclusive: 79.4 µM [inhibitor, partial curve, poor fit]. With `COc1cccc(/C=C/C(=O)OCC(=O)NCCC2=CCCCC2)c1` the Potency was “inactive”. With `O=c1c2ccccc2nc2n1CCCCC2` the Potency was “inactive”. In the case of `Cc1cc(C)c2oc(C(=O)Nc3nc4ccc(Cl)cc4s3)cc(=O)c2c1`, the Potency is reported as “inactive”. With `COc1cccc(NS(=O)(=O)c2ccc3[nH]cc(C(=O)NCCc4ccc(C)cc4)c(=O)c3c2)c1` the Potency was inconclusive: 56.2 µM [inhibitor, partial curve, poor fit]. For `O=c1[nH][nH]c(C(F)(F)F)c1C=Nc1ccccc1`, the Potency was “inactive”. `CCC1CCc2sc(C(=O)NCC(c3ccccc3OC)N3CCCC3)cc2C1` (configuration not stated) was tested, and the Potency was inconclusive: 79.4 µM [inhibitor, partial curve, poor fit]. With `C[c-]1[c-](C)[c-](C)[c-](C)[c-]1C.[Fe].c1cc2nccc(N3CCCC3)[c-]2c1` (configuration not stated) the Potency was inconclusive: 31.6 µM [inhibitor, full curve]. For `CN(C)S(=O)(=O)N(CC(=O)NCCSc1ccc(Cl)cc1)c1ccccc1`, the Potency was inconclusive: 100 µM [inhibitor, single point]. For `COc1ccc(-c2nc(SCc3ccc(C#N)cc3)[nH]c(=O)c2C#N)cc1`, the Potency was inconclusive: 44.7 µM [inhibitor, partial curve, poor fit]. In the case of `COc1ccc(/C=C/C(=O)O)cc1S(=O)(=O)N1CCc2ccccc2C1`, the Potency is reported as inconclusive: 56.2 µM [inhibitor, partial curve, poor fit]. For `COc1cc(-c2cc(=O)c3c(O)c(OC)c(OC)cc3o2)cc(OC)c1O`, the Potency was active: 22.4 µM. For `OC(c1cc(-c2ccc(C(F)(F)F)cc2)nc(C(F)(F)F)c1)C1CCCCN1` (configuration not stated), the Potency was inconclusive: 56.2 µM [inhibitor, partial curve, poor fit]. For `COc1ccc(N(C)C(=O)c2oc(=O)c3ccccc3c2-c2ccccc2)c(OC)c1`, the Potency was “inactive”. `N/C(=N\OC(=O)c1ccccc1Br)c1ccc([N+](=O)[O-])cc1` was tested, and the Potency was inconclusive: 79.4 µM [inhibitor, partial curve, poor fit]. With `Cc1ccc(S(=O)(=O)N2C[C@H]3[C@H]4C(=O)N(c5ccccc5)C(=O)[C@H]4C[C@H](OC(=O)NCc4ccccc4)[C@@]3(O)C2)cc1` the Potency was “inactive”. In the case of `Cc1cccc(Oc2ccccc2NS(=O)(=O)c2ccc(CCC(=O)O)cc2)c1`, the Potency is reported as active: 20 µM. For `CC(CCc1ccccc1)NC(=O)C1CCCN(c2nnc(-n3cccc3)s2)C1` (configuration not stated), the Potency was inconclusive: 50.1 µM [inhibitor, partial curve]. For `O=C(NC1(O)C(=O)c2ccccc2C1=O)c1ccccc1`, the Potency was active: 31.6 µM. In the case of `O=C(O)Cc1c[nH]c2cccc(O)c12`, the Potency is reported as active: 8.91 µM. For `CN(C)c1ccc2nc3ccc(=O)cc-3sc2c1`, the Potency was active: 39.8 µM. `Cc1ccc(OCC(=O)OCC(=O)Nc2sccc2C(N)=O)cc1C` was tested, and the Potency was inconclusive: 28.2 µM [inhibitor, single point]. With `COc1cccc(NC(=O)CN2C(=O)C3(SCC(=O)N3c3cc(C)cc(C)c3)c3ccccc32)c1` (configuration not stated) the Potency was “inactive”. For `CCCc1cc(=O)[nH]c2nnc(SCC(=O)Nc3ccc(NC(C)=O)cc3)n12`, the Potency was inconclusive: 35.5 µM [inhibitor, single point]. `O=C(COn1nnc2ccc(C(F)(F)F)cc21)Nc1nnc(-c2ccccc2)o1` was tested, and the Potency was inconclusive: 35.5 µM [inhibitor, partial curve, poor fit]. In the case of `CC(=O)N(\C=C/C=C/C=C1\Sc2ccccc2C1=O)c1ccccc1`, the Potency is reported as active: 79.4 µM. For `CCc1ccccc1N(CC(=O)NCc1ccco1)C(=O)c1snc(C(N)=O)c1N`, the Potency was active: 20 µM. With `O=C(CSc1nc(-c2ccccc2)cc(=O)[nH]1)Nc1ccccn1` the Potency was inconclusive: 89.1 µM [inhibitor, partial curve, poor fit]. With `COC(=O)CCC(=O)Nc1cccc(Br)c1` the Potency was “inactive”. In the case of `Cc1cc(N)n2nc(-c3ccccc3)cc2n1`, the Potency is reported as inconclusive: 89.1 µM [inhibitor, partial curve, poor fit]. `Cc1cc(NC(=O)c2ccc([N+](=O)[O-])o2)ccc1NC(=O)c1ccco1` was tested, and the Potency was inconclusive: 89.1 µM [inhibitor, partial curve]. In the case of `Cc1c(C(=O)OCC(=O)N2CC(=O)Nc3ccccc32)oc2ccc(Br)cc12`, the Potency is reported as inconclusive: 39.8 µM [inhibitor, partial curve, poor fit]. In the case of `COc1ccc(-c2[nH]c(-c3ccc(C(=O)O)cc3)nc2-c2ccccc2)cc1`, the Potency is reported as “inactive”. For `CCCc1ccc(OCc2nc(-c3ccc(NC(=O)c4cccs4)cc3)no2)cc1`, the Potency was inconclusive: 25.1 µM [inhibitor, partial curve]. For `O=S(=O)(NC(=S)Nc1ccccc1)c1ccc(F)cc1`, the Potency was inconclusive: 89.1 µM [inhibitor, partial curve, poor fit]. In the case of `COc1ccc(S(=O)(=O)Nc2cc(SCC(=O)O)c(O)c3ccccc23)cc1`, the Potency is reported as active: 7.94 µM. With `CC(OC(=O)c1ccc(S(=O)(=O)N(C)c2ccccc2)cc1)C(=O)NCCC1=CCCCC1` (configuration not stated) the Potency was inconclusive: 70.8 µM [inhibitor, partial curve, poor fit]. For `O=C(Cc1cccc2ccccc12)N/N=C/c1ccc2cccc(O)c2n1`, the Potency was inconclusive: 89.1 µM [inhibitor, partial curve, poor fit]. With `COc1ccc(CN(C)C(=O)Cc2ccc(OC)c(S(=O)(=O)N3CCOCC3)c2)cc1` the Potency was inconclusive: 100 µM [inhibitor, partial curve, poor fit]. `COc1ccc(Cl)cc1NC(=O)c1c(NCc2cccs2)sc2c1CCC(C)C2` (configuration not stated) was tested, and the Potency was inconclusive: 89.1 µM [inhibitor, partial curve, poor fit]. In the case of `CCOc1ccc(-c2nnc3sc(COc4ccc(Cl)cc4)nn23)cc1`, the Potency is reported as inconclusive: 17.8 µM [inhibitor, partial curve, poor fit]. For `CC1(NC(=O)/C=C/c2nc3ccccc3s2)CCS(=O)(=O)C1` (configuration not stated), the Potency was active: 50.1 µM. In the case of `O=C(OCc1cc(=O)n2c(n1)sc1ccccc12)c1ccc(O)cc1`, the Potency is reported as inconclusive: 2.24 µM [inhibitor, partial curve, poor fit]. For `O=C(OCC(=O)N1CCCc2ccccc21)c1ccc(Br)o1`, the Potency was “inactive”. `O=c1cc(N2CCN(c3ccc(F)cc3)CC2)[nH]c(=O)n1-c1cccc(Br)c1` was tested, and the Potency was “inactive”. In the case of `CCOc1cc(/C=N/Nc2ccc(S(=O)(=O)Nc3ccccc3C(=O)O)cc2[N+](=O)[O-])cc(Cl)c1O`, the Potency is reported as active: 25.1 µM. In the case of `CC(O)Cn1c(N2CCCC2)nc2c1c(=O)n(C)c(=O)n2C` (configuration not stated), the Potency is reported as inconclusive: 100 µM [inhibitor, partial curve, poor fit]. For `COc1ccc2[nH]c(=O)c(-c3noc(-c4ccc(F)cc4)n3)cc2c1`, the Potency was inconclusive: 2.51 µM [inhibitor, full curve, poor fit]. In the case of `COc1ccccc1-c1nnc(SCC(=O)Nc2ccc(N3CCOCC3)cc2)n1N`, the Potency is reported as inconclusive: 100 µM [inhibitor, partial curve, poor fit]. For `O=C(NNC(=O)C1CCC1)c1ccc(F)cc1`, the Potency was “inactive”. For `Cc1ccc(C(=O)c2cn(CC(=O)Nc3ccc4c(c3)OCCO4)c3nc(C)ccc3c2=O)cc1`, the Potency was inconclusive: 63.1 µM [inhibitor, partial curve, poor fit]. For `COc1ccc(-n2c(C)cc(/C=C3\SC(=O)NC3=O)c2C)cc1`, the Potency was inconclusive: 79.4 µM [inhibitor, partial curve]. For `Cc1cc(OC(=O)c2ccccc2Br)c([N+](=O)[O-])c(=O)[nH]1`, the Potency was “inactive”. In the case of `O=C1NC(=S)N(C(=O)c2ccc(F)cc2)/C1=C/c1ccccc1`, the Potency is reported as inconclusive: 28.2 µM [inhibitor, partial curve]. In the case of `CN1C(=O)S/C(=C\c2ccccc2OCc2ccc(C(=O)O)cc2)C1=O`, the Potency is reported as inconclusive: 39.8 µM [inhibitor, partial curve, poor fit].

Reference: PubChem BioAssay AID588591 (National Center for Advancing Translational Sciences (NCATS), 2011)
Potency means the concentration at half of the fitted maximal effect; tags describe the fitted curve by direction and shape.
